# Experimental data taken from the supplement of paper PMC9046079.
# Where a name gives a salt, the structure may show the parent alone. ± gives the standard deviation of the averaged measurements. The list shows a part of the results.
# Tests used:
# [1] = system: murine small intestinal organoids (ENR+CD Paneth differentiation); assay: cellular ATP (CellTiter-Glo 3D) relative to plate median (log10 fold change); higher = more viable cells; settings: 6 d
# [2] = system: murine small intestinal organoids (ENR+CD Paneth differentiation); assay: carbachol-stimulated secreted lysozyme activity relative to plate median (log10 fold change); higher = more Paneth cell lysozyme secretion; settings: 6 d, carbachol 10 µM
# [3] = system: murine small intestinal organoids (ENR+CD Paneth differentiation); assay: basal (non-stimulated) secreted lysozyme activity relative to plate median (log10 fold change); higher = more Paneth cell lysozyme secretion; settings: 6 d
# 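For basal (non-stimulated) secreted lysozyme activity relative to plate median in this document: ISC-enriched organoid precursors grown as 2.5D pseudo-monolayer on Matrigel, compound given on day 0 and day 3, plate values LOESS-normalized before median fold change, three murine donors.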
# 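For cellular ATP (CellTiter-Glo 3D) relative to plate median in this document: 2.5D pseudo-monolayer culture of ISC-enriched organoids partly embedded atop Matrigel, compound added on day 0 and again on day 3, per-plate LOESS correction before median fold change.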
SMILES,cellular ATP (log10) ([1]; 0.08 µM),cellular ATP (log10) ([1]; 0.4 µM),cellular ATP (log10) ([1]; 2 µM),cellular ATP (log10) ([1]; 10 µM),carbachol-stimulated secreted lysozyme activity (log10) ([2]; 0.08 µM),carbachol-stimulated secreted lysozyme activity (log10) ([2]; 0.4 µM),carbachol-stimulated secreted lysozyme activity (log10) ([2]; 2 µM),carbachol-stimulated secreted lysozyme activity (log10) ([2]; 10 µM),basal (log10) ([3]; 0.08 µM),basal (log10) ([3]; 0.4 µM),basal (log10) ([3]; 2 µM),basal (log10) ([3]; 10 µM)
O=C(O)c1cc2cccc([N+](=O)[O-])c2[nH]1,-0.171 ± 0.4,-0.04 ± 0.28,-0.0806 ± 0.048,-0.0993 ± 0.17,0.072 ± 0.038,0.142 ± 0.11,0.0723 ± 0.17,-0.0498 ± 0.13,0.0155 ± 0.088,0.0343 ± 0.11,0.0469 ± 0.14,0.0319 ± 0.25
CC(=O)Nc1nc2c(Oc3cc(-c4ccc(C(F)(F)F)cc4)ncn3)cccc2s1,0.161 ± 0.13,0.113 ± 0.39,0.112 ± 0.11,0.0565 ± 0.15,-0.0355 ± 0.033,0.016 ± 0.086,0.00539 ± 0.0044,0.28 ± 0.14,0.0204 ± 0.073,0.0599 ± 0.1,-0.00584 ± 0.011,0.0307 ± 0.14
"CNC(=O)[C@H](Cc1c[nH]c2ccccc12)NC(=O)[C@@H](CC(=O)NO)CC(C)C [Ilomastat (GM6001, Galardin)]",0.197 ± 0.25,0.163 ± 0.24,0.0906 ± 0.078,-0.11 ± 0.14,0.246 ± 0.12,0.11 ± 0.17,0.0511 ± 0.031,-0.131 ± 0.18,0.0553 ± 0.12,-0.0106 ± 0.13,0.00741 ± 0.047,-0.106 ± 0.11
O=C(O)c1ccc(N2C(=O)C(=Cc3ccc(-c4ccc([N+](=O)[O-])cc4)o3)C=C2c2ccccc2)cc1,0.246 ± 0.13,0.362 ± 0.47,0.00625 ± 0.093,-0.0108 ± 0.26,0.12 ± 0.08,-0.025 ± 0.095,0.0788 ± 0.07,0.0952 ± 0.25,0.1 ± 0.049,-0.0177 ± 0.088,0.151 ± 0.27,0.00707 ± 0.075
COc1cc(N2CCC(N)CC2)ccc1Nc1ncc(Cl)c(-c2c[nH]c3ccccc23)n1,-0.275 ± 0.46,-0.341 ± 0.44,-0.772 ± 0.86,-0.96 ± 0.27,-0.22 ± 0.12,-0.4 ± 0.14,-0.415 ± 0.1,-0.428 ± 0.14,-0.147 ± 0.086,-0.19 ± 0.11,-0.232 ± 0.13,-0.209 ± 0.16
CCCCCCCCCCCC1=C(O)C(=O)C=C(O)C1=O [Embelin],-0.323 ± 0.56,-0.723 ± 1.2,-0.325 ± 0.43,-0.72 ± 1.3,0.0908 ± 0.14,0.00369 ± 0.043,-0.0367 ± 0.096,-0.0733 ± 0.0084,-0.0148 ± 0.2,-0.0818 ± 0.12,-0.0554 ± 0.15,-0.094 ± 0.076
FC(F)(F)c1ccc(/C=C/c2nc(COc3ccc(CCCCn4ccnn4)cc3)co2)cc1 [Mubritinib (TAK 165)],-0.524 ± 0.2,-0.34 ± 0.24,-0.53 ± 0.18,-0.519 ± 0.32,-0.138 ± 0.0081,-0.17 ± 0.17,-0.334 ± 0.059,-0.281 ± 0.0048,-0.0574 ± 0.063,-0.194 ± 0.14,-0.224 ± 0.076,-0.24 ± 0.02
CCN1CCN(c2ccc(Nc3cc(N(C)C(=O)Nc4c(Cl)c(OC)cc(OC)c4Cl)ncn3)cc2)CC1,-0.0537 ± 0.34,0.0263 ± 0.28,-0.185 ± 0.19,-1.5 ± 0.71,0.0322 ± 0.085,0.0441 ± 0.3,-0.066 ± 0.084,-0.403 ± 0.046,-0.00193 ± 0.12,-0.0598 ± 0.091,-0.0517 ± 0.046,-0.269 ± 0.11
CS(=O)(=O)N1CCN(Cc2cc3nc(-c4cccc5[nH]ncc45)nc(N4CCOCC4)c3s2)CC1,0.283 ± 0.11,0.0224 ± 0.16,-0.197 ± 0.26,-1.22 ± 0.54,0.00985 ± 0.086,-0.0791 ± 0.069,-0.292 ± 0.015,-0.317 ± 0.017,0.00801 ± 0.039,-0.0128 ± 0.032,-0.128 ± 0.056,-0.156 ± 0.083
NC(=O)C1CCCc2c1[nH]c1ccc(Cl)cc21 (stereo not drawn) [EX 527 (Selisistat)],0.24 ± 0.068,0.174 ± 0.11,0.341 ± 0.18,0.32 ± 0.22,0.0731 ± 0.2,0.0613 ± 0.0094,-0.0997 ± 0.2,-0.0736 ± 0.11,0.1 ± 0.091,0.0588 ± 0.048,0.03 ± 0.067,0.0567 ± 0.07
CN(c1ncccc1CNc1nc(Nc2ccc3c(c2)CC(=O)N3)ncc1C(F)(F)F)S(C)(=O)=O,-0.114 ± 0.091,-0.217 ± 0.1,-0.549 ± 0.037,-0.949 ± 0.27,-0.104 ± 0.051,-0.267 ± 0.056,-0.407 ± 0.13,-0.514 ± 0.0084,-0.0676 ± 0.024,-0.152 ± 0.094,-0.234 ± 0.15,-0.251 ± 0.09
Cc1cnc(-c2cc(N3CCN(C(=O)CCS(C)(=O)=O)CC3)ncc2Cl)c(C)c1,-0.101 ± 0.27,-0.04 ± 0.093,0.0548 ± 0.12,-0.0765 ± 0.26,0.317 ± 0.0082,-0.0414 ± 0.018,0.0445 ± 0.06,0.0743 ± 0.08,0.0785 ± 0.12,-0.0294 ± 0.019,0.0108 ± 0.051,0.0737 ± 0.046
COc1ccccc1N1CCN(CC(O)COc2cccc3ccccc23)CC1 (stereo not drawn) [Naftopidil],-0.0389 ± 0.11,-0.161 ± 0.12,-0.179 ± 0.17,-0.132 ± 0.15,-0.0818 ± 0.014,-0.178 ± 0.053,-0.0914 ± 0.024,-0.106 ± 0.027,-0.0373 ± 0.15,-0.0819 ± 0.063,-0.0197 ± 0.055,-0.0733 ± 0.027
O=C(NOCC1CC1)c1ccc(F)c(F)c1Nc1ccc(I)cc1Cl,0.366 ± 0.43,0.261 ± 0.49,-0.212 ± 0.33,-0.796 ± 0.57,-0.0299 ± 0.019,-0.0362 ± 0.1,-0.2126 ± 0.00042,-0.296 ± 0.13,-0.0186 ± 0.0075,-0.0526 ± 0.033,-0.135 ± 0.048,-0.116 ± 0.075
O=C(O)/C=C/c1ccc(Cn2ccnc2)cc1 [Ozagrel],0.0547 ± 0.14,0.224 ± 0.19,-0.0625 ± 0.088,0.113 ± 0.086,0.201 ± 0.31,0.137 ± 0.11,0.12 ± 0.12,0.0118 ± 0.023,0.074 ± 0.093,0.0437 ± 0.039,0.0801 ± 0.072,-0.00776 ± 0.015
C=CCn1c(=O)c2cnc(Nc3ccc(N4CCN(C)CC4)cc3)nc2n1-c1cccc(C(C)(C)O)n1,0.165 ± 0.12,-0.45 ± 0.2,-0.804 ± 0.31,-1.03 ± 0.4,0.0995 ± 0.014,-0.247 ± 0.071,-0.23 ± 0.075,-0.302 ± 0.11,0.0383 ± 0.059,-0.153 ± 0.074,-0.215 ± 0.081,-0.181 ± 0.12
Cc1cn([C@H]2C=C[C@@H](CO)O2)c(=O)[nH]c1=O [Stavudine (d4T)],-0.0325 ± 0.27,-0.0509 ± 0.47,-0.331 ± 0.74,-0.265 ± 0.55,-0.00609 ± 0.29,-0.202 ± 0.29,-0.124 ± 0.18,-0.277 ± 0.24,0.0171 ± 0.13,-0.0804 ± 0.16,-0.0905 ± 0.2,-0.155 ± 0.14
Cc1ccc([C@@H]2O[C@H](CO)[C@@H](O)[C@H](O)[C@H]2O)cc1Cc1ccc(-c2ccc(F)cc2)s1 [Canagliflozin],-0.24 ± 0.13,-0.0985 ± 0.21,0.0421 ± 0.041,-0.0789 ± 0.12,0.0181 ± 0.21,-0.0468 ± 0.07,0.0145 ± 0.059,0.0179 ± 0.051,-0.0268 ± 0.12,-0.0457 ± 0.036,0.0246 ± 0.037,-0.0639 ± 0.042
CC(C)Oc1ccc(-c2cnc3c(-c4ccnc5ccccc45)cnn3c2)cc1,-0.0313 ± 0.046,-0.0786 ± 0.17,-0.00164 ± 0.23,-0.00118 ± 0.1,0.127 ± 0.046,0.153 ± 0.05,0.11 ± 0.076,-0.106 ± 0.08,0.0178 ± 0.04,0.0265 ± 0.15,0.0143 ± 0.11,-0.0754 ± 0.044
CS(=O)(=O)c1cccc(CNc2nc(Nc3ccc4c(c3)CCC(=O)N4)ncc2C(F)(F)F)c1,0.0768 ± 0.12,-0.054 ± 0.17,-0.434 ± 0.16,-0.497 ± 0.15,0.132 ± 0.12,0.0181 ± 0.028,-0.187 ± 0.33,-0.367 ± 0.014,0.0102 ± 0.027,-0.0461 ± 0.045,-0.0576 ± 0.25,-0.25 ± 0.15
CC(=O)OCC(=O)NCCCOc1cccc(CN2CCCCC2)c1 [Roxatidine Acetate HCl],0.0434 ± 0.47,0.128 ± 0.3,0.0603 ± 0.38,-0.13 ± 0.36,-0.133 ± 0.076,-0.0294 ± 0.12,-0.0188 ± 0.17,-0.084 ± 0.13,0.0126 ± 0.13,-0.008 ± 0.094,0.0524 ± 0.095,-0.0368 ± 0.061
c1ccc(CNc2nc(NCc3ccccc3)c3ccccc3n2)cc1,0.119 ± 0.26,-0.0129 ± 0.13,0.00434 ± 0.12,-1.13 ± 0.74,0.0313 ± 0.15,0.25 ± 0.26,-0.103 ± 0.072,-0.448 ± 0.17,0.0969 ± 0.13,0.064 ± 0.073,-0.0475 ± 0.043,-0.296 ± 0.078
C[C@@H](NCCCc1cccc(C(F)(F)F)c1)c1cccc2ccccc12 [Cinacalcet HCl],-0.444 ± 0.38,-0.298 ± 0.099,-0.0116 ± 0.1,-0.451 ± 0.35,-0.0898 ± 0.24,0.0129 ± 0.13,-0.0296 ± 0.042,-0.174 ± 0.026,-0.0616 ± 0.12,-0.0232 ± 0.14,-0.0217 ± 0.044,-0.0907 ± 0.044
CCc1c2c(nc3ccc(OC(=O)N4CCC(N5CCCCC5)CC4)cc13)-c1cc3c(c(=O)n1C2)COC(=O)[C@]3(O)CC [Irinotecan HCl Trihydrate],-0.0832 ± 0.052,-0.205 ± 0.1,-0.317 ± 0.11,-0.588 ± 0.15,-0.0465 ± 0.0011,-0.166 ± 0.19,-0.303 ± 0.15,-0.428 ± 0.046,-0.0186 ± 0.029,-0.0925 ± 0.046,-0.221 ± 0.059,-0.272 ± 0.075
